# Assay results published in patent US10299477B2 (priority 2015, dated 2019).
# Key:
# Format in all cases: in vivo
# [1] = tested on: Plasmopara viticola; assay: Test Example G: Downy mildew on vine; settings: for Test G control value (downy mildew on vine): 250 ppm spray (2.5 ml/pot), preventive, control value class; for Test G (control value class, downy mildew on vine): 250 ppm, sprayed 2.5 ml/pot before inoculation; for Test G (control value class): 250 ppm spray
# Text: [Test Example G] Downy Mildew on Vine
# Seeds of a test plant (grape variety: Neomuscat) were planted followed by cultivating until three to four first leaves appeared. […] After the sprayed dilutions were dried, a zoosporangia suspension (1-2×10^4 zoosporangia/ml) of Plasmopara viticola was inoculated to the plants by spraying.
# [2] = tested on: Alternaia brassicicola; assay: Test Example C: Alternaria sooty spot on cabbage; settings: for Test C control value (Alternaria sooty spot on cabbage): preventive, control value class; for Test C (control value class, Alternaria sooty spot on cabbage): in vivo; for Test C (control value class): Alternaria sooty spot on cabbage
# Text: [Test Example C] Alternaria Sooty Spot on Cabbage
# Seeds of a test plant (cabbage variety: Shikidori) were planted followed by cultivating until the cotyledons extended.
# [3] = tested on: Botrytis cinerea; assay: Test Example B: Gray mold on tomato; settings: for Test B control value (gray mold on tomato): preventive, control value class; for Test B (control value class, gray mold on tomato): in vivo
# Text: [Test Example B] Gray Mold on Tomato
# Seeds of a test plant (tomato variety: Oogata Fukuju) were planted followed by cultivating until three to five first leaves (true leaves) appeared.
# [4] = tested on: Blumeria graminis f sp. hordei; assay: Test Example D: Powdery mildew on barley; settings: for Test D control value (powdery mildew on barley): preventive, control value class; for Test D (control value class, powdery mildew on barley): in vivo
# Text: [Test Example D] Powdery Mildew on Barley
# After the sprayed dilutions were dried, conidia of Blumeria graminis f sp. hordei were inoculated to the plants by shaking off.
# [5] = tested on: Puccinia recondita; assay: Test Example E: Brown rust on wheat; settings: for Test E control value (brown rust on wheat): preventive, control value class; for Test E (control value class, brown rust on wheat): in vivo
# Text: [Test Example E] Brown Rust on Wheat
# [6] = evaluated 7-10 days after inoculation
# [7] = downy mildew on vine, Plasmopara viticola, 7-10 days after inoculation
# [8] = gray mold on tomato, Botrytis cinerea, 250 ppm spray
# [9] = powdery mildew on barley, 250 ppm spray
# [10] = brown rust on wheat, Puccinia recondita, 250 ppm spray
# [11] = Downy mildew on vine, 2.5 ml/pot, evaluated 7-10 days after inoculation
# [12] = Gray mold on tomato, control value=100{1-(n/3)}
# [13] = Powdery mildew on barley, control value=100{1-(n/3)}
# [14] = Brown rust on wheat, control value=100{1-(n/3)}
smiles,measurement,setting,value
Cn1c(-c2c(F)cccc2F)c(-c2ccc(Br)cc2)cc(Cl)c1=O [Compound 291],Test G control value (downy mildew on vine),[1]; 7-10 days after inoculation,H (H shows more than 50% of control values)
same,Test C control value (Alternaria sooty spot on cabbage),[2]; 250 ppm spray,H (H shows more than 50% of control values)
same,Test B control value (gray mold on tomato),[3]; 250 ppm spray,H (H shows more than 50% of control values)
same,Test D control value (powdery mildew on barley),[4]; 250 ppm spray,H (H shows more than 50% of control values)
same,Test E control value (brown rust on wheat),[5]; 250 ppm spray,H (H shows more than 50% of control values)
Cc1cc(F)c(-c2c(-c3cc(F)ccc3Cl)ccc(=O)n2C)c(F)c1 [Compound 690],"Test G (control value class, downy mildew on vine)",[1]; [6],L (L shows 50% or less of control values)
same,"Test C (control value class, Alternaria sooty spot on cabbage)",[2],H (H shows more than 50% of control values)
same,"Test B (control value class, gray mold on tomato)",[3],H (H shows more than 50% of control values)
same,"Test D (control value class, powdery mildew on barley)",[4],L (L shows 50% or less of control values)
same,"Test E (control value class, brown rust on wheat)",[5],H (H shows more than 50% of control values)
CCn1c(-c2c(F)cc(Br)cc2F)c(-c2cc(OC)cc(OC)c2)ccc1=O [Compound 199],Test G control value (downy mildew on vine),[1]; 7-10 days after inoculation,L (L shows 50% or less of control values)
same,Test C control value (Alternaria sooty spot on cabbage),[2]; 250 ppm spray,H (H shows more than 50% of control values)
same,Test B control value (gray mold on tomato),[3]; 250 ppm spray,H (H shows more than 50% of control values)
same,Test D control value (powdery mildew on barley),[4]; 250 ppm spray,L (L shows 50% or less of control values)
same,Test E control value (brown rust on wheat),[5]; 250 ppm spray,H (H shows more than 50% of control values)
CCn1c(-c2c(F)cc(F)cc2F)c(-c2cc(F)ccc2Cl)ccc1=O [Compound 738],"Test G (control value class, downy mildew on vine)",[1]; [6],L (L shows 50% or less of control values)
same,"Test C (control value class, Alternaria sooty spot on cabbage)",[2],H (H shows more than 50% of control values)
same,"Test B (control value class, gray mold on tomato)",[3],H (H shows more than 50% of control values)
same,"Test D (control value class, powdery mildew on barley)",[4],H (H shows more than 50% of control values)
same,"Test E (control value class, brown rust on wheat)",[5],H (H shows more than 50% of control values)
COc1cc(OC)c(Cl)c(-c2ccc(=O)n(CC(F)(F)F)c2-c2c(F)cc(F)cc2F)c1 [Compound 377],Test G (control value class),[1]; [7],H (H shows more than 50% of control values)
same,Test C (control value class),[2]; 250 ppm spray,H (H shows more than 50% of control values)
same,Test B (control value class),[3]; [8],H (H shows more than 50% of control values)
same,Test D (control value class),[4]; [9],H (H shows more than 50% of control values)
same,Test E (control value class),[5]; [10],H (H shows more than 50% of control values)
CCn1c(-c2c(F)cc(F)cc2F)c(-c2cccc(F)c2F)cc(Br)c1=O [Compound 567],"Test G (control value class, downy mildew on vine)",[1]; [6],H (H shows more than 50% of control values)
same,"Test C (control value class, Alternaria sooty spot on cabbage)",[2],H (H shows more than 50% of control values)
same,"Test B (control value class, gray mold on tomato)",[3],H (H shows more than 50% of control values)
same,"Test D (control value class, powdery mildew on barley)",[4],H (H shows more than 50% of control values)
same,"Test E (control value class, brown rust on wheat)",[5],H (H shows more than 50% of control values)
CCn1c(-c2c(F)cccc2F)c(-c2cc(F)ccc2F)cc(Cl)c1=O [Compound 481],Test G (control value class),[1]; [7],L (L shows 50% or less of control values)
same,Test C (control value class),[2]; 250 ppm spray,H (H shows more than 50% of control values)
same,Test B (control value class),[3]; [8],H (H shows more than 50% of control values)
same,Test D (control value class),[4]; [9],H (H shows more than 50% of control values)
same,Test E (control value class),[5]; [10],H (H shows more than 50% of control values)
Cn1c(-c2c(F)cc(F)cc2F)c(-c2cccc(F)c2Cl)ccc1=O [Compound 491],Test G (control value class),[1]; [7],L (L shows 50% or less of control values)
same,Test C (control value class),[2]; 250 ppm spray,H (H shows more than 50% of control values)
same,Test B (control value class),[3]; [8],H (H shows more than 50% of control values)
same,Test D (control value class),[4]; [9],H (H shows more than 50% of control values)
same,Test E (control value class),[5]; [10],H (H shows more than 50% of control values)
CCn1c(-c2c(F)cc(C)cc2F)c(-c2cc(F)ccc2Cl)cc(Cl)c1=O [Compound 708],"Test G (control value class, downy mildew on vine)",[1]; [6],L (L shows 50% or less of control values)
same,"Test C (control value class, Alternaria sooty spot on cabbage)",[2],L (L shows 50% or less of control values)
same,"Test B (control value class, gray mold on tomato)",[3],L (L shows 50% or less of control values)
same,"Test D (control value class, powdery mildew on barley)",[4],L (L shows 50% or less of control values)
same,"Test E (control value class, brown rust on wheat)",[5],H (H shows more than 50% of control values)
CCN1C(=O)CCC(c2ccc(Br)cc2Cl)=C1c1c(F)cc(F)cc1F [Compound 622],"Test G (control value class, downy mildew on vine)",[1]; [6],L (L shows 50% or less of control values)
same,"Test C (control value class, Alternaria sooty spot on cabbage)",[2],H (H shows more than 50% of control values)
same,"Test B (control value class, gray mold on tomato)",[3],L (L shows 50% or less of control values)
same,"Test D (control value class, powdery mildew on barley)",[4],H (H shows more than 50% of control values)
same,"Test E (control value class, brown rust on wheat)",[5],H (H shows more than 50% of control values)
COc1cc(F)c(-c2c(-c3cc(F)cc(F)c3)cc(Br)c(=O)n2C)c(F)c1 [Compound 808],Test G (control value class),[1]; [11],L (L shows 50% or less of control values)
same,Test C (control value class),[2]; control value=100{1-(n/3)},H (H shows more than 50% of control values)
same,Test B (control value class),[3]; [12],H (H shows more than 50% of control values)
same,Test D (control value class),[4]; [13],L (L shows 50% or less of control values)
same,Test E (control value class),[5]; [14],H (H shows more than 50% of control values)
COc1cc(F)c(-c2c(-c3cc(F)cc(F)c3)cc(Cl)c(=O)n2C)c(F)c1 [Compound 807],Test G (control value class),[1]; [11],L (L shows 50% or less of control values)
same,Test C (control value class),[2]; control value=100{1-(n/3)},H (H shows more than 50% of control values)
same,Test B (control value class),[3]; [12],H (H shows more than 50% of control values)
same,Test D (control value class),[4]; [13],L (L shows 50% or less of control values)
same,Test E (control value class),[5]; [14],H (H shows more than 50% of control values)
CCOc1cc(F)c(-c2c(-c3ccccc3Cl)cc(Cl)c(=O)n2CC)c(F)c1 [Compound 684],"Test G (control value class, downy mildew on vine)",[1]; [6],H (H shows more than 50% of control values)
same,"Test C (control value class, Alternaria sooty spot on cabbage)",[2],H (H shows more than 50% of control values)
same,"Test B (control value class, gray mold on tomato)",[3],H (H shows more than 50% of control values)
same,"Test D (control value class, powdery mildew on barley)",[4],H (H shows more than 50% of control values)
same,"Test E (control value class, brown rust on wheat)",[5],H (H shows more than 50% of control values)
CCOc1ccc(Cl)c(-c2ccc(=O)n(CC(F)F)c2-c2c(F)cccc2F)c1 [Compound 214],Test G control value (downy mildew on vine),[1]; 7-10 days after inoculation,L (L shows 50% or less of control values)
same,Test C control value (Alternaria sooty spot on cabbage),[2]; 250 ppm spray,H (H shows more than 50% of control values)
same,Test B control value (gray mold on tomato),[3]; 250 ppm spray,H (H shows more than 50% of control values)
same,Test D control value (powdery mildew on barley),[4]; 250 ppm spray,H (H shows more than 50% of control values)
same,Test E control value (brown rust on wheat),[5]; 250 ppm spray,H (H shows more than 50% of control values)
CCCOc1cc(F)c(-c2c(-c3cc(OC)cc(OC)c3Cl)ccc(=O)n2C)c(F)c1 [Compound 281],Test G control value (downy mildew on vine),[1]; 7-10 days after inoculation,H (H shows more than 50% of control values)
same,Test C control value (Alternaria sooty spot on cabbage),[2]; 250 ppm spray,H (H shows more than 50% of control values)
same,Test B control value (gray mold on tomato),[3]; 250 ppm spray,H (H shows more than 50% of control values)
same,Test D control value (powdery mildew on barley),[4]; 250 ppm spray,H (H shows more than 50% of control values)
same,Test E control value (brown rust on wheat),[5]; 250 ppm spray,H (H shows more than 50% of control values)
CCOc1cc(F)c(-c2c(-c3ccc(F)cc3Cl)cc(Cl)c(=O)n2CC)c(F)c1 [Compound 595],"Test G (control value class, downy mildew on vine)",[1]; [6],H (H shows more than 50% of control values)
same,"Test C (control value class, Alternaria sooty spot on cabbage)",[2],H (H shows more than 50% of control values)
same,"Test B (control value class, gray mold on tomato)",[3],H (H shows more than 50% of control values)
same,"Test D (control value class, powdery mildew on barley)",[4],H (H shows more than 50% of control values)
same,"Test E (control value class, brown rust on wheat)",[5],H (H shows more than 50% of control values)
